Measured values taken from PubChem BioAssay AID1508623 (National Center for Advancing Translational Sciences (NCATS), 2021).
Values joined by “and” are separate entries in the source; they are usually repeats but may differ in a detail not shown here. Identical values can stand only once. Hit rate of the full screen: of about 48,000 compounds, about 450 (0.94%) were called active. This list was built around the results that the source calls inconclusive (neither active nor inactive); the mix of calls is not that of the screen. The call rests on the fitted dose curve; in most records, active means well fitted inhibition curve with a large enough effect; inconclusive means small, poorly fitted or top-dose-only effect; inactive means no such curve, though single readings can be large or run the other way. Where the call is inconclusive, the potency comes from a doubtful curve fit.

Assay: Primary qHTS for Identification of Small Molecule Inhibitors of Huntingtin Promoter Activity; further: nearly all actives have a fitted effect of over 50% in size
Settings: HEK293 HTT promoter firefly luciferase reporter (activity 0% = vehicle and -100% = no light), 24 h; activity change, negative = inhibition: at 57.5 µM (top of the series)
Summary of the method: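 HEK293 cells carrying firefly luciferase reporters were seeded at 2,500 per well in Opti-MEM and cultured for 24 h. They were then treated with compounds at up to 57.5 uM final for 24 h at 37 degrees C before Dual-Glo luminescence readout.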
Potency means the concentration at half of the fitted maximal effect; tags describe the fitted curve by direction and shape.

SMILES | Potency | activity change, negative = inhibition
CCCC(=O)c1ccc(OC(=O)c2c(-c3ccccc3Cl)noc2C)cc1 | inconclusive: 28.2 µM [inhibitor, single point] | 
COc1ccc(-c2cn3c(n2)sc2cc(C(=O)Nc4cc(OC)cc(OC)c4)ccc23)cc1 | inconclusive: 31.6 µM [inhibitor, partial curve, poor fit] | 
N#Cc1c(NC(=O)CS(=O)(=O)c2ccc(Cl)cc2)sc2c1CCCCC2 | inconclusive: 7.08 µM [inhibitor, single point] | 
CC1=C(c2ccc(C)cc2)S(=O)(=O)N(Cc2ccc(C(=O)NCc3ccccc3F)cc2)C1=O | inconclusive: 15.8 µM [inhibitor, partial curve] | 
Cc1ccc2c(c1)C(C)(c1ccccc1)CC(C)(C)N2C(=O)c1ccc(F)cc1 (configuration not stated) | inconclusive: 35.5 µM [inhibitor, single point] | 
CC(=O)c1ccc(NC(=O)Cn2c(=O)oc3cc(S(=O)(=O)N4CCCCC4)ccc32)cc1 |  | inactive: -6.18%
O=C(Nc1cccc(Cl)c1)c1cc(S(=O)(=O)N2CCC3(CC2)OCCO3)ccc1F | inconclusive: 31.6 µM [inhibitor, single point] | 
Cc1ccccc1C(=O)n1nc(-c2cccnc2)nc1NCc1ccc(F)cc1 | inconclusive: 31.6 µM [inhibitor, partial curve, poor fit] | 
COc1ccc(NC(=O)CC(C)S(=O)(=O)c2ccc3c(c2)NC(=O)CO3)cc1OC (configuration not stated) |  | inactive: -20%
CCCN1CCN(C(=O)Cn2ncc3c4ccccc4n(Cc4cccc(Cl)c4)c3c2=O)CC1 | inconclusive: 3.55 µM [inhibitor, partial curve] | 
O=C(Nc1c(C(=O)N2CCN(c3ccccc3)CC2)oc2ccccc12)c1ccccc1F | inconclusive: 31.6 µM [inhibitor, partial curve, poor fit] | 
CC1=Nc2cc(C(=O)NC3CCCC3)ccc2Sc2ccc(Cl)cc21 | inconclusive: 10 µM [inhibitor, partial curve, poor fit] | 
CC(C)CN(CC(C)C)S(=O)(=O)c1ccc(C(=O)Nc2sc3c(c2C(N)=O)CCN(C(C)C)C3)cc1 | inconclusive: 25.1 µM [inhibitor, single point] | 
CCOc1ccc(-c2noc(CSc3nnc(Cc4ccccc4)n3-c3ccc(F)cc3)n2)cc1 | inconclusive: 28.2 µM [inhibitor, single point] | 
Cc1cccc(N2CCN(c3ncnc4c3cnn4-c3ccc(Cl)cc3)CC2C)c1 (configuration not stated) |  | inactive: 12.5%
COc1cccc(C(=O)Nc2c3c(nn2-c2ccc(C)cc2C)CS(=O)(=O)C3)c1OC | inconclusive: 5.01 µM [inhibitor, partial curve] | 
CC#C[C@]1(O)CC[C@H]2[C@@H]3CCC4=CC(=O)CCC4=C3[C@@H](c3ccc(N(C)C)cc3)C[C@@]21C | inconclusive: 28.2 µM [inhibitor, single point] and inconclusive: 769 nM [inhibitor, full curve] | 
O=C(NCC(c1ccc2c(c1)OCO2)N1CCN(c2ccccc2F)CC1)c1ccccc1F (configuration not stated) | inconclusive: 39.8 µM [inhibitor, single point] | 
COc1ccc(C2CC(=O)N(CC(=O)Nc3ccc(C(C)=O)cc3)c3ccccc3S2)cc1OC (configuration not stated) | inconclusive: 35.5 µM [inhibitor, partial curve, poor fit] | 

SMILES | Potency | activity change, negative = inhibition
O=S(=O)(NCCc1csc2nc(-c3ccc(Cl)cc3)nn12)c1ccc2c(c1)OCCO2 | inconclusive: 20 µM [inhibitor, single point] | 
O=C(CSc1nccn1Cc1ccc(Cl)cc1)Nc1ccc2c(c1)OCO2 | inconclusive: 39.8 µM [inhibitor, single point] | 
O=C(Nc1ccc(Cl)c(C(F)(F)F)c1)C(Cc1ccccc1)NS(=O)(=O)c1cccc2nsnc12 (configuration not stated) | inconclusive: 31.6 µM [inhibitor, partial curve, poor fit] | 
CCc1cccc(CC)c1NC(=O)N1Cc2[nH]nc(NC(=O)c3ccc(N4CCN(C)CC4)cc3)c2C1 |  | inactive: 0.628%
C[N+]1(CC2COC(c3ccccc3)(c3ccccc3)O2)CCCCC1 (configuration not stated) |  | inactive: -2.74% [at 25.2 µM]
C[C@H]1NCc2cc(-c3ccc4c(=O)c(C(=O)O)cn(C5CC5)c4c3OC(F)F)ccc21 |  | inactive: -4.82% [at 25.2 µM]
CCOc1ccccc1NC(=O)CSc1ncc(S(=O)(=O)c2ccc(C)c(C)c2)c(N)n1 | inconclusive: 28.2 µM [inhibitor, partial curve, poor fit] | 
COc1cc(NC(=O)N2CCC3(CC2)Nc2ccccc2-n2cccc23)cc(OC)c1OC | inconclusive: 17.8 µM [inhibitor, partial curve] | 
CNC(=O)c1c(NC(=O)Cc2coc3ccc(C)cc23)sc2c1CCCC2 | inconclusive: 35.5 µM [inhibitor, single point] | 
O=C(CSc1nc2c([nH]c3ccccc32)c(=O)n1-c1ccccc1)Nc1ccc(Cl)c(Cl)c1 | inconclusive: 17.8 µM [inhibitor, single point] | 
O=C(CSc1c2c(nc3cc(Cl)ccc13)CCCC2)N1CCN(c2ccccc2F)CC1 | inconclusive: 39.8 µM [inhibitor, single point] | 
Cc1ccc(S(=O)(=O)Nc2nc3ccccc3nc2Nc2ccc3nsnc3c2)cc1 |  | inactive: -21.5% [at 25.2 µM]
Cc1nc(-c2ccc(S(=O)(=O)N3CCN(c4cc(Cl)ccc4C)CC3)cc2)co1 |  | inactive: -15.1%
COc1ccc2c(Sc3ccc(Cl)cc3)c(C(=O)N3CCC(C)CC3)[nH]c2c1 | inconclusive: 3.16 µM [inhibitor, single point] | 
CCN(CC)S(=O)(=O)c1ccc2[nH]cc(C(=O)NCCc3ccccc3)c(=O)c2c1 | inconclusive: 10 µM [inhibitor, partial curve] | 
Nc1ccc2nc(-c3ccc(O)cc3)sc2c1 |  | inactive: 85.7%
O=C(Cn1c(=O)oc2cc(S(=O)(=O)NCc3ccccc3)ccc21)NCc1ccccc1Cl | inconclusive: 39.8 µM [inhibitor, partial curve, poor fit] | 
COc1ccc(NC(=O)CC2C(=O)N(c3ccc(F)cc3)C(=O)N2CCc2sccc2C)cc1 (configuration not stated) | inconclusive: 22.4 µM [inhibitor, partial curve, poor fit] | 
